{"source": "the supplement of paper PMC4723716", "note": "± gives the uncertainty stated by the source. Over roughly 9,900 compounds, “viability index relative to DMSO control” has its median near 1; the lowest 2% begin near 0.85. The list shows a part of the results.", "data": [{"system": "Plasmodium falciparum NF54 stage V gametocytes", "test": "viability index relative to DMSO control (fraction); higher = less gametocyte killing", "settings": "2.5 µM, library set: Broad Institute DOS, incubation time: 72 h", "outline": "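P. falciparum NF54 stage V gametocytes in serum-free screening medium (0.75% gametocytemia, 1.25% hematocrit, 10 µl) were incubated with compound at 2.5 µM in 1,536-well plates for 72 hr at 37°C under low oxygen. Then 3 µl of 2.5 µM MitoTracker Red CMXRos plus 0.13% saponin was added for one to two hours. One field per well was imaged, 20–70 µm2 red particles were counted, and the viability index was the count divided by the plate mean of DMSO wells.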", "values": [{"smiles": "CCC(=O)N(CC(C)C)C[C@H]1[C@H](c2ccccc2)[C@@H](CO)N1C(=O)C1CCC1", "viability index": "1.02 ± 0.061"}, {"smiles": "C[C@@H]1CN([C@@H](C)CO)C(=O)Cc2cc(NC(=O)Cn3cnnn3)ccc2O[C@H]1CN(C)S(=O)(=O)c1ccc(Cl)cc1", "viability index": "1.06 ± 0.061"}, {"smiles": "COc1cccc(S(=O)(=O)N2CC[C@@H]3[C@H](CO)Nc4ccc(C5=CCCCC5)cc4[C@@H]32)c1", "viability index": "0.918 ± 0.075"}, {"smiles": "Cc1ccc(S(=O)(=O)Nc2ccc3c(c2)C(=O)N([C@@H](C)CO)C[C@H](C)[C@H](CN(C)Cc2ccc(C(F)(F)F)cc2)O3)cc1", "viability index": "0.978 ± 0.037"}, {"smiles": "CC(=O)N1[C@H](CNC(=O)CN(C)C)[C@@H](c2ccc(C3=CCCCC3)cc2)[C@@H]1CO", "viability index": "1.05 ± 0.021"}, {"smiles": "Cc1cccc(S(=O)(=O)N2C[C@H](O)COC[C@H]3O[C@@H](CC(=O)Nc4ccccc4)CC[C@@H]32)c1", "viability index": "1.06 ± 0.057"}, {"smiles": "COc1ccc2c3c([nH]c2c1)[C@@H](CO)N(C[C@]31CN(C1)C(=O)c1ccccn1)C(=O)Nc1ccc(F)cc1", "viability index": "0.971 ± 0.068"}, {"smiles": "C[C@H](CO)N1C[C@H](C)[C@H](CN(C)Cc2ccc3c(c2)OCO3)Oc2ccc(NC(=O)C3CCCCC3)cc2C1=O", "viability index": "1.025 ± 0.0046"}, {"smiles": "COc1ccc2c3c([C@@H](CO)NC[C@]33CCN(CC3)S(=O)(=O)c3cccc(C)c3)n(C)c2c1", "viability index": "0.929 ± 0.026"}, {"smiles": "O=C(c1ccccc1F)N1CC(=O)N2[C@H](C1)[C@@H](c1ccc(C#Cc3ccccc3)cc1)[C@@H]2CO", "viability index": "1.044 ± 0.0057"}, {"smiles": "CC(C)(C)[S@](=O)N1Cc2cc(C(=O)NCCN3CCCC3)nc(-c3cccc(-c4ccc(C#N)cc4)c3)c2[C@@H]1CCO", "viability index": "1.01 ± 0.051"}, {"smiles": "O=C(Cc1ccccc1)N1CC(=O)N2[C@H](CO)[C@@H](c3ccc(-c4ccc(F)cc4)cc3)[C@@H]2C1", "viability index": "0.915 ± 0.066"}, {"smiles": "O=C(C[C@@H]1C[C@@H]2c3cc(NC(=O)c4cccnc4)ccc3O[C@@H]2[C@@H](CO)O1)NCc1cc(F)ccc1F", "viability index": "0.978 ± 0.018"}, {"smiles": "COCC#Cc1ccc([C@H]2[C@@H](CO)N3C(=O)CN(C(=O)c4ccncc4)C[C@H]23)cc1", "viability index": "1.03 ± 0.12"}, {"smiles": "CCCNC(=O)Nc1ccc2c(c1)OC[C@H](C)N(C(=O)C1CCOCC1)C[C@H](C)[C@H](OC)CN(C)C2=O", "viability index": "1.05 ± 0.16"}, {"smiles": "C[C@@H](NC(=O)C[C@H]1C=C[C@@H](NS(=O)(=O)c2cccc(F)c2)[C@H](CO)O1)c1ccccc1", "viability index": "1.17 ± 0.04"}, {"smiles": "CO[C@H](CN(C)Cc1nccs1)[C@@H](C)CN([C@H](C)CO)S(=O)(=O)c1ccc(F)cc1", "viability index": "0.9942 ± 0.0032"}, {"smiles": "O=C(C[C@@H]1CC[C@H]2[C@@H](COC[C@@H](O)CN2S(=O)(=O)c2cccc(F)c2)O1)NCc1ccncn1", "viability index": "1.09 ± 0.029"}, {"smiles": "O=C(C[C@@H]1CC[C@@H]2[C@H](COC[C@@H](O)CN2Cc2ccc(Oc3ccccc3)cc2)O1)N1CCN(c2ccccc2)CC1", "viability index": "1.03 ± 0.058"}]}]}
